# Source: PMC4336329 (PLoS ONE, 2015)
# In all, about 310,000 compounds went through this assay and about 14,000 (4.5%) showed an effect of 50% or more. The effect is printed as a negative number. This is one part of the list.
# Target: human ether-à-go-go-related gene (hERG) potassium channel (human, UniProt Q12809)
# Assay: primary screen, population patch clamp on CHO cells stably expressing hERG
# 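Further: peak tail current of the secondary pulse compared with the same well before compound.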
# human ether-à-go-go-related gene (hERG) potassium channel, sequence (Q12809 whole entry, looked up): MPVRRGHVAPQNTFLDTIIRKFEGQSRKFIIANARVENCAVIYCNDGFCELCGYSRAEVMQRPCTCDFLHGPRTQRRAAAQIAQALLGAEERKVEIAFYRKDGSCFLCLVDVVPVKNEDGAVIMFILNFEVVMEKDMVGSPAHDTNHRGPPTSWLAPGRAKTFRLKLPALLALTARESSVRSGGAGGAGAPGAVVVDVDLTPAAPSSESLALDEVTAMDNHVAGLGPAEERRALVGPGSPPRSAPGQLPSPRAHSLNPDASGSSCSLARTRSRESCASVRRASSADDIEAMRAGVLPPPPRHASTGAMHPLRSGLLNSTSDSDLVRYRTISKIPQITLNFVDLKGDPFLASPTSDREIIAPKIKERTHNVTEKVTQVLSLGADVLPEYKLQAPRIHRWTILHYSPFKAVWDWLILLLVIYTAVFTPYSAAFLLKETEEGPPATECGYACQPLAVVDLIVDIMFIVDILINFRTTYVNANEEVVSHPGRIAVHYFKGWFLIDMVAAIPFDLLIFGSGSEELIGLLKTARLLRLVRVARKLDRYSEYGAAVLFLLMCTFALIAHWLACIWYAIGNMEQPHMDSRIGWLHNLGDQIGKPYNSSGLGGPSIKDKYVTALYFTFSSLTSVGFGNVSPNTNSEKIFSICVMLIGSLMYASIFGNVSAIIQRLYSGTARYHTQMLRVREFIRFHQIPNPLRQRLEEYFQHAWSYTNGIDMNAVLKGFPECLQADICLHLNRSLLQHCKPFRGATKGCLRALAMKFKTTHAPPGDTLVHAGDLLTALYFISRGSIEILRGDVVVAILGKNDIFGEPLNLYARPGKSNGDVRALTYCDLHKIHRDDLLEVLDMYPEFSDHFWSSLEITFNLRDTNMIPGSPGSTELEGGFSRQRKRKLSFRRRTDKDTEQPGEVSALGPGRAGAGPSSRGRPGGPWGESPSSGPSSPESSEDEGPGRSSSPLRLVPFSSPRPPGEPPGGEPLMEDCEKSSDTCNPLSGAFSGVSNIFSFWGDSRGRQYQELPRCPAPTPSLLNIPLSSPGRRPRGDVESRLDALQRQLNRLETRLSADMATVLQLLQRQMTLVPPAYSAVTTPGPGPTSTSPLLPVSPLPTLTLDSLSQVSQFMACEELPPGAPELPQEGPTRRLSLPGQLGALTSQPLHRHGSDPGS
row,Structure (SMILES),"hERG current change (%, negative = inhibition) at 10uM"
1,COc1ccc2no[n+]([O-])c2c1,28.1%
2,CCOCCCNC(=S)N1CCCN(c2nc3cc(C)cc(C)c3cc2C#N)CC1,-55.6%
3,O=c1c(Cl)c(NS(=O)(=O)c2ccccc2)cnn1-c1ccccc1,12.2%
4,COc1ccc(CCN(C)C(=O)c2ccc(S(=O)(=O)NCc3ccco3)cc2)cc1OC,-4.8%
5,CCc1ccc(C(=O)COC(=O)C(CCSC)NC(=O)c2ccccc2)cc1 (centres unmarked),5.66%
6,Cc1[nH]c2ccc(Br)cc2c(=O)c1CN1CCCCCC1,-64.3%
7,[Cl-].[NH3+]CCCn1c(C(=O)c2ccc(Cl)cc2)c2ccc([N+](=O)[O-])cc2[n+]1[O-],-63.8%
8,CC(NCCOc1ccccc1F)C(=O)Nc1ccc(S(N)(=O)=O)cc1 (centres unmarked),13.4%
9,CCOc1ccccc1NC(=O)CSc1nnc2ccc(-c3cccnc3)nn12,-25.8%
10,CN(C)/C=C/c1onc(-c2ccccc2Cl)c1C#N,-32.6%
11,CNc1ccccc1C(C)(C)c1cc(C)[nH]n1,22.6%
12,CCOc1ccc(NC(=S)Nc2ccc(Br)cc2Cl)cc1,32.6%
13,O=C(NC1CCCCCC1)c1c(O)c2ccccc2[nH]c1=O,8.34%
14,CCN1C(=O)S/C(=C/c2ccc(Oc3ccc([N+](=O)[O-])cn3)c(OC)c2)C1=O,9.24%
15,CC1(C2CC2)NC(=O)N(CC(=O)Nc2ccc(F)cc2F)C1=O (centres unmarked),-2.98%
16,Cc1ccc(Nc2nnc(SC(C)C(=O)NC3CC3)s2)cc1 (centres unmarked),-14%
17,COC(/C(=N/O)c1ccc(Cl)cc1)c1ccccc1 (centres unmarked),3%
18,Cc1ccc(S(=O)(=O)NNC(=O)c2cccs2)c(C)c1,14.4%
19,Cc1cc(C)nc(NC(=O)/C=C/c2ccc3c(c2)OCO3)c1,7.47%
20,S=C(NCc1cccc(Cl)c1)NC1CCCCC1,0.759%
21,CN1CCN(c2ccccc2NC(=O)COc2ccccc2)CC1,-48.4%
22,O=C(Nc1nc(-c2cc(Cl)sc2Cl)cs1)c1ccccc1,16.3%

row,Structure (SMILES),"hERG current change (%, negative = inhibition) at 10uM"
1,O=c1[nH]c(-c2ccncc2)nc2ccccc12,1.99%
2,O=C(O)CCn1[nH]c(=O)c2ccccc2c1=O,11.8%
3,c1ccc(-n2ncc3c(NCc4cccs4)ncnc32)cc1,11.8%
4,O=C(NCCCN1CCCC1=O)c1ccccc1NS(=O)(=O)c1ccc(Br)cc1,1.59%
5,Cc1ccccc1CN1CCN(CC2CC3C=CC2C3)CC1 (centres unmarked),1.36%
6,O=C1c2ccccc2C(Nc2ccc(S(=O)(=O)N3CCCCC3)cc2)N1Cc1ccco1 (centres unmarked),-22.7%
7,C=C1SC(=Nc2ccccc2Cl)N(C(=O)c2sc3ccccc3c2Cl)C1(C)C,-8.75%
8,COc1ccc(/C=C(\NC(=O)c2ccc(C)cc2)C(=O)N2CCCCC2)cc1,-55.2%
9,Cc1ccc(N2CCN(c3ncccc3[N+](=O)[O-])CC2)c(C)c1,22.4%
10,Cc1ccc(S(=O)(=O)N2CCC(C(=O)OCC(=O)NCCc3ccccc3)CC2)cc1C,-8.07%
11,COc1ccccc1NC(=S)N(CCc1ccc(OC)c(OC)c1)Cc1ccccn1,-49.6%
12,CCC(=O)N1CCN(c2ccc(NC(=S)NC(=O)C(C)C)cc2)CC1,-2.67%
13,CCC(C)(C)n1nnnc1C(c1cc2cc(OC)c(OC)cc2[nH]c1=O)N1CCc2ccccc21 (centres unmarked),-4.37%
14,O=C(CSc1nnc2sc3ccccc3n12)NCc1ccc2c(c1)OCO2,-24.9%
15,CCOC(=O)N1CCC(NC(=O)CCc2nc(-c3ccc(C)cc3)no2)CC1,-6.4%
16,N#Cc1cc2cc3c(cc2nc1SCC(=O)N1CCCC1)OCCO3,3.99%
17,Cc1ccc(-n2ncc3c(=O)n(CC(N)=O)cnc32)cc1C,22.2%
18,Cc1ccc(/C(N)=N/OC(=O)c2cccc(F)c2)cc1,1.95%
19,COc1ccc(C(=O)NNC(=S)NC(=O)c2cccc([N+](=O)[O-])c2)cc1,17.9%
20,O=C(Cn1c(SCC(=O)N2CCCc3ccccc32)nc2ccccc21)N1CCCC1,-13.2%
21,COc1cccc(Cn2nnc(C(=O)Nc3cc(Cl)ccc3OC)c2N)c1,13.3%
22,CCOc1ccc2nc(SCC(=O)NCc3ccco3)sc2c1,-29.8%
